# Laboratory results reported in the supplement of paper PMC8728848.
# The list shows a part of the results.
# Key:
# Experiment in all cases: glycan array binding signal (z-score within array); higher = stronger binding
# Settings in all cases: glycan notation: IUPAC condensed, linker removed
# [1] = target: Gal(b1-4)GlcNAc(b1-2)Man(a1-3)Man(b1-4)GlcNAc(b1-4)GlcNAc
# In short: (§1)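 The Consortium for Functional Glycomics database supplied 3228 glycan arrays, of which those lacking an available protein sequence were dropped. The binding signal, a within-array Z-score, was averaged across arrays of the same protein sequence and across linkers. Negative scores can be read as non-binding.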
# [2] = target: Gal(b1-4)GlcNAc(b1-2)Man(a1-3)[Gal(b1-4)GlcNAc(b1-2)Man(a1-6)]Man(b1-4)GlcNAc(b1-4)GlcNAc
# In short: as §1
# [3] = target: Gal(b1-4)GlcNAc(b1-2)Man(a1-3)[Gal(b1-4)GlcNAc(b1-2)Man(a1-6)]Man(b1-4)GlcNAc(b1-4)[Fuc(a1-6)]GlcNAc
# In short: as §1
# [4] = target: Gal(b1-4)GlcNAc(b1-2)Man(a1-3)[Gal(b1-4)GlcNAc(b1-2)][GlcNAc(b1-4)]Man(b1-4)GlcNAc(b1-4)GlcNAc
# In short: as §1
# [5] = target: Gal(b1-4)GlcNAc(b1-2)Man(a1-3)[GlcNAc(b1-2)Man(a1-6)]Man(b1-4)GlcNAc(b1-4)GlcNAc
# In short: as §1
# [6] = target: Gal(b1-4)GlcNAc(b1-2)Man(a1-3)[Man(a1-6)]Man(b1-4)GlcNAc(b1-4)GlcNAc
# In short: as §1
# [7] = target: Gal(b1-4)GlcNAc(b1-2)Man(a1-6)Man(b1-4)GlcNAc(b1-4)GlcNAc
# In short: as §1
# [8] = target: Gal(b1-4)GlcNAc(b1-2)Man(a1-6)[GlcNAc(b1-2)Man(a1-3)]Man(b1-4)GlcNAc(b1-4)GlcNAc
# In short: as §1
# [9] = target: Gal(b1-4)GlcNAc(b1-2)Man(a1-6)[Man(a1-3)]Man(b1-4)GlcNAc(b1-4)GlcNAc
# In short: as §1
# [10] = target: Gal(b1-4)GlcNAc(b1-2)[Gal(b1-4)GlcNAc(b1-4)]Man(a1-3)[Gal(b1-4)GlcNAc(b1-2)Man(a1-6)]Man(b1-4)GlcNAc(b1-4)GlcNAc
# In short: as §1
# [11] = target: Gal(b1-4)GlcNAc(b1-2)[Gal(b1-4)GlcNAc(b1-4)]Man(a1-3)[Gal(b1-4)GlcNAc(b1-2)[Gal(b1-4)GlcNAc(b1-6)]Man(a1-6)]Man(b1-4)GlcNAc(b1-4)GlcNAc
# In short: as §1
# [12] = target: Gal(b1-4)GlcNAc(b1-2)[Gal(b1-4)GlcNAc(b1-4)]Man(a1-3)[GlcNAc(b1-4)][Gal(b1-4)GlcNAc(b1-2)Man(a1-6)]Man(b1-4)GlcNAc(b1-4)GlcNAc
# In short: as §1
# [13] = target: Gal(b1-4)GlcNAc(b1-2)[Gal(b1-4)GlcNAc(b1-4)]Man(a1-3)[GlcNAc(b1-4)][Gal(b1-4)GlcNAc(b1-2)[Gal(b1-4)GlcNAc(b1-6)]Man(a1-6)]Man(b1-4)GlcNAc(b1-4)GlcNAc
# In short: as §1
# [14] = target: Gal(b1-4)GlcNAc(b1-2)[Gal(b1-4)GlcNAc(b1-6)]Man(a1-6)[Gal(b1-4)GlcNAc(b1-2)Man(a1-3)]Man(b1-4)GlcNAc(b1-4)GlcNAc
# In short: as §1
# [15] = target: Gal(b1-4)GlcNAc(b1-2)[Gal(b1-4)GlcNAc(b1-6)]Man(a1-6)[GlcNAc(b1-4)][Gal(b1-4)GlcNAc(b1-2)Man(a1-3)]Man(b1-4)GlcNAc(b1-4)GlcNAc
# In short: as §1
# [16] = target: Gal(b1-4)GlcNAc(b1-3)Gal(b1-3)GlcNAc
# In short: as §1
# [17] = target: Gal(b1-4)GlcNAc(b1-3)Gal(b1-4)Glc
# In short: as §1
# [18] = target: Gal(b1-4)GlcNAc(b1-3)Gal(b1-4)GlcNAc
# In short: as §1
# [19] = target: Gal(b1-4)GlcNAc(b1-3)Gal(b1-4)GlcNAc(b1-3)Gal(b1-4)GlcNAc
# In short: as §1
# [20] = target: Gal(b1-4)GlcNAc(b1-3)Gal(b1-4)[Fuc(a1-3)GlcNAc(b1-6)]Gal(b1-4)Glc
# In short: as §1
# [21] = target: Gal(b1-4)GlcNAc(b1-3)Gal(b1-4)[Fuc(a1-3)]GlcNAc(b1-3)Gal(b1-4)[Fuc(a1-3)]GlcNAc
# In short: as §1
# [22] = target: Gal(b1-4)GlcNAc(b1-3)GalNAc
# In short: as §1
# [23] = target: Gal(b1-4)GlcNAc(b1-3)[Gal(b1-4)GlcNAc(b1-6)]Gal(b1-4)GlcNAc
# In short: as §1
# [24] = target: Gal(b1-4)GlcNAc(b1-3)[Gal(b1-4)GlcNAc(b1-6)]GalNAc
# In short: as §1
# [25] = target: Gal(b1-4)GlcNAc(b1-3)[GlcNAc(b1-6)]Gal(b1-4)GlcNAc
# In short: as §1
# [26] = target: Gal(b1-4)GlcNAc(b1-6)Gal(b1-4)GlcNAc
# In short: as §1
# [27] = target: Gal(b1-4)GlcNAc(b1-6)Gal(b1-4)GlcNAc(b1-6)GalNAc
# In short: as §1
# [28] = target: Gal(b1-4)GlcNAc(b1-6)GalNAc
# In short: as §1
# [29] = target: Gal(b1-4)GlcNAc(b1-6)[Gal(b1-3)]GalNAc
# In short: as §1
# Gal(b1-6)Gal = target: Gal(b1-6)Gal
# In short: as §1
# Gal3S(b1-3)GalNAc = target: Gal3S(b1-3)GalNAc
# In short: as §1
# Gal3S(b1-3)GlcNAc = target: Gal3S(b1-3)GlcNAc
# In short: as §1
# [30] = target: Gal3S(b1-3)[Fuc(a1-4)]GlcNAc
# In short: as §1
# Gal3S(b1-4)Glc = target: Gal3S(b1-4)Glc
# In short: as §1
# Gal3S(b1-4)Glc6S = target: Gal3S(b1-4)Glc6S
# In short: as §1
# Gal3S(b1-4)GlcNAc = target: Gal3S(b1-4)GlcNAc
# In short: as §1
# Gal3S(b1-4)GlcNAc6S = target: Gal3S(b1-4)GlcNAc6S
# In short: as §1
# [31] = target: Gal3S(b1-4)[Fuc(a1-3)]Glc
# In short: as §1
# [32] = target: Gal3S(b1-4)[Fuc(a1-3)]Glc6S
# In short: as §1
# Gal3S4S(b1-4)GlcNAc = target: Gal3S4S(b1-4)GlcNAc
# In short: as §1
# Gal3S6S(b1-4)GlcNAc = target: Gal3S6S(b1-4)GlcNAc
# In short: as §1
# Gal3S6S(b1-4)GlcNAc6S = target: Gal3S6S(b1-4)GlcNAc6S
# In short: as §1
# Gal4S(b1-4)GlcNAc = target: Gal4S(b1-4)GlcNAc
# In short: as §1
# Gal4S6S(b1-4)GlcNAc = target: Gal4S6S(b1-4)GlcNAc
# In short: as §1
# Gal6S(b1-3)GlcNAc = target: Gal6S(b1-3)GlcNAc
# In short: as §1
binder,measurement,setting,value
"F17aG (Escherichia coli), Q99003 (protein) MTNFYKVFLAVFILVCCNISQAAVSFIGSTENDVGPSLGSYSRTHAMDNLPFVYDTRNKIGYQNANVWHISKGFCVGLDGKVDLPVVGSLDGQSIYGLTEEVGLLIWMGDTKYSRGTAMSGNSWENVFSGWCVGANTASTQGLSVRVTPVILKRNSSARYSVQKTSIGSIRMRPYNGSSAGSVQTTVNFSLNPFTLNDTVTSCRLLTPSAVNVSLAAISAGQLPSSGDEVVAGTTSLKLQCDAGVTVWATLTDATTPSNRSDILTLTGASTATGVGLRIYKNTDSTPLKFGPDSPVKGNENQWQLSTGTETSPSVRLYVKYVNTGEGINPGTVNGISTFTFSYQ",glycan array binding signal (z-score),[1],-0.13
same,glycan array binding signal (z-score),[2],-0.254
same,glycan array binding signal (z-score),[3],-0.127
same,glycan array binding signal (z-score),[4],-0.077
same,glycan array binding signal (z-score),[5],-0.159
same,glycan array binding signal (z-score),[6],-0.142
same,glycan array binding signal (z-score),[7],-0.164
same,glycan array binding signal (z-score),[8],-0.178
same,glycan array binding signal (z-score),[9],-0.145
same,glycan array binding signal (z-score),[10],-0.164
same,glycan array binding signal (z-score),[11],-0.122
same,glycan array binding signal (z-score),[12],-0.123
same,glycan array binding signal (z-score),[13],-0.167
same,glycan array binding signal (z-score),[14],-0.146
same,glycan array binding signal (z-score),[15],-0.192
same,glycan array binding signal (z-score),[16],0.012
same,glycan array binding signal (z-score),[17],-0.147
same,glycan array binding signal (z-score),[18],-0.24
same,glycan array binding signal (z-score),[19],-0.247
same,glycan array binding signal (z-score),[20],-0.178
same,glycan array binding signal (z-score),[21],-0.219
same,glycan array binding signal (z-score),[22],-0.208
same,glycan array binding signal (z-score),[23],-0.174
same,glycan array binding signal (z-score),[24],-0.198
same,glycan array binding signal (z-score),[25],1.53
same,glycan array binding signal (z-score),[26],-0.157
same,glycan array binding signal (z-score),[27],-0.312
same,glycan array binding signal (z-score),[28],-0.205
same,glycan array binding signal (z-score),[29],-0.073
same,glycan array binding signal (z-score),Gal(b1-6)Gal,-0.176
same,glycan array binding signal (z-score),Gal3S(b1-3)GalNAc,-0.244
same,glycan array binding signal (z-score),Gal3S(b1-3)GlcNAc,-0.187
same,glycan array binding signal (z-score),[30],-0.248
same,glycan array binding signal (z-score),Gal3S(b1-4)Glc,-0.241
same,glycan array binding signal (z-score),Gal3S(b1-4)Glc6S,-0.171
same,glycan array binding signal (z-score),Gal3S(b1-4)GlcNAc,-0.155
same,glycan array binding signal (z-score),Gal3S(b1-4)GlcNAc6S,0.15
same,glycan array binding signal (z-score),[31],-0.155
same,glycan array binding signal (z-score),[32],-0.116
same,glycan array binding signal (z-score),Gal3S4S(b1-4)GlcNAc,-0.148
same,glycan array binding signal (z-score),Gal3S6S(b1-4)GlcNAc,-0.102
same,glycan array binding signal (z-score),Gal3S6S(b1-4)GlcNAc6S,-0.013
same,glycan array binding signal (z-score),Gal4S(b1-4)GlcNAc,-0.239
same,glycan array binding signal (z-score),Gal4S6S(b1-4)GlcNAc,-0.138
same,glycan array binding signal (z-score),Gal6S(b1-3)GlcNAc,-0.155
